The other results are listed elsewhere or left out.
T1: UNK ZnF1-3 (human, UniProt Q9C0B0 31-174)
T1 sequence: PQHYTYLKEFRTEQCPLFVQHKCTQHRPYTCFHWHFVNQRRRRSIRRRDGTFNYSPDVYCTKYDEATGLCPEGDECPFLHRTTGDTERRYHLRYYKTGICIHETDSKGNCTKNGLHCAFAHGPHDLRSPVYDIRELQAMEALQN

B1: chrX:131338992:131338993:-_ENSMUSG00000033436_ENSMUST00000035559|mus_hu|motif|central (ssRNA)
RNA: GGGAGUUCUACAGUCCGACGAUCAUAACAUCACUCUGGAUGAUACAUUAUUCAACACUGGCAGCUGAAAGGAUCCCUUUACGGUAUGAGCAAGUGGAAAAGCAGUAACUUUCAAUUUUCAACGCUUCCACACUGCAAAAUCAUCAACAGAGGAUUGAGCAUCA
B2: chr4:148551591:148551592:-_ENSMUSG00000063077_ENSMUST00000060537|mus_hu|mus_mus_mus_hu_False|18_78 (ssRNA)
RNA: GGGAGUUCUACAGUCCGACGAUCACCUGACAAAAUUAAAUAUCCCUGUAAAUUAGACAAGAAGCAGCAGGCAACAAAGUCUUUGCUUUGGAAUAUGUGCCAGGAAAAGUCAUCUUGUAGACCCCAAUCAAGAGACAGUUCACACAACAGAGGAUUGAGCAUCA
B3: chr12:6601462:6601463:-_ENSG00000111639_ENST00000229238|hu_mus|motif|central (ssRNA)
RNA: GGGAGUUCUACAGUCCGACGAUCCUCUCCUUGCUGGGAUAAGUCCUGUUCCCCUUCUCCAGGGUGACACAUUUCCCGUCCGGUCUGUACUUCCCAUGUCGGUUAAAGUGUUUGUAGAGAUAGCUGAUCCGUUUGUUAAGGUUACAACAGAGGAUUGAGCAUCA
B4: chr12:110819636:110819637:-_ENSG00000196510_ENST00000455511|hu_mus|motif|central (ssRNA)
RNA: GGGAGUUCUACAGUCCGACGAUCAAGCCUGAUGGCCUCCCGAAAGUGUAUGAUGGCUUCCUGGACCCUCCCCAUGUUCCGGAGCGCCGCCCCCUUGAGUAACAGAGCCUGGACGCUGUUGCUGUUCAGCUGGAUGGCCUUGGCCAACAGAGGAUUGAGCAUCA
B5: chr5:67718940:67718941:+_ENSMUSG00000029221_ENSMUST00000113676|mus_hu|FALSE|FALSE (ssRNA)
RNA: GGGAGUUCUACAGUCCGACGAUCGUAAAAGACUCAGUAUCUUCAUGGGGACUUCGUCGUCUGAUUUUUCGAAGUUGUUCUAGAUCACUGGAUUUGAGGCAGAACUCAUUUAUCGCUCUGACUCCAGUGAUGAAAUUAUUCUGACAACAGAGGAUUGAGCAUCA
B6: chr11:18536373:18536374:-_ENSG00000074319_ENST00000251968|hu_hu|FALSE|FALSE (ssRNA)
RNA: GGGAGUUCUACAGUCCGACGAUCAUAUGGGUAUGUGUCCAGUAGCCAUAGGCAUAUUGGAAUAUUGUAUGUAUUACCUCUAUAAGGCACAGGGAUUGUUCCAGUGAGGUUCAUUAGUUCCCUGGAACUGCCAUCGUUAAAAACCAACAGAGGAUUGAGCAUCA
B7: chr21:30439091:30439092:-_ENSG00000156261_ENST00000286788|hu_hu|FALSE|FALSE (ssRNA)
RNA: GGGAGUUCUACAGUCCGACGAUCCAGAAUUUUACAAACUCUGAUGUUAUCAACAUUGAAAUGGCCGGAAUCAGGAAAAAUAGAUACGCAUGCCUGAGCAAUAAGCUUGGCCAGAAAUACUUCAUUACCAUAUUGUUUACUCAUCAACAGAGGAUUGAGCAUCA
B8: chr7:65705844:65705845:+_ENSG00000169902_ENST00000304842|hu_mus|hu_hu_hu_mus_False|1_78 (ssRNA)
RNA: GGGAGUUCUACAGUCCGACGAUCAAACGGAUCUUUGUUACAUAAAUAAGGUGCCGGCUCCCCAUGCUUAACAAUGACCUCCAGAAGGAAGGCUUGCAUGGCAGAAUCUAGCACUUCAUCUGUGACACCCGCCUCAUCCAGGCGCAACAGAGGAUUGAGCAUCA
B9: chr16:94664741:94664742:+_ENSMUSG00000040785_ENSMUST00000117648|mus_mus|FALSE|FALSE (ssRNA)
RNA: GGGAGUUCUACAGUCCGACGAUCUGGCAUGGAUCUUUGCAUUGGAUACUCAGAAGAAAUGUUGGCCAAAGGUGUGUAAAUGCUAGUGAACUGCGACAGGCUAGGUACCAUGUUAAUGUACGCUGGUCGCUGGGUGAUGCCAAACAACAGAGGAUUGAGCAUCA
B10: 116060031_116060151_268_5pUTR_ENSMUSG00000020777_ENSMUST00000066587|mouse|control|control (ssRNA)
RNA: GGGAGUUCUACAGUCCGACGAUCGCUGGGGGCAGAGGAGGUGGCGACAGAAGUGACAGGCACCAAAGCGAUGACAACCUGUCUCCGCAGCUCAGGCGCCGACCAGGCCCUAUGAGCGGAGCGAGACAGCCCUCGGCCCCGCCCCAACAGAGGAUUGAGCAUCA
B11: chr10:22824096:22824097:-_ENSG00000150867_ENST00000376573|hu_mus|motif|central (ssRNA)
RNA: GGGAGUUCUACAGUCCGACGAUCUUAUUGGGAUGACAGAGAUGGUUACAGACAAAAACCAAAGCAGUUUUGUAAACUUCGGAAAGCAUACAGAUUGGCCACAGAGGAAAUGGUUACUCAGAUCAUGUAUAUGUACCUUCAUUUCAACAGAGGAUUGAGCAUCA
B12: chr3:52741720:52741721:+_ENSG00000114902_ENST00000602728|hu_hu|FALSE|FALSE (ssRNA)
RNA: GGGAGUUCUACAGUCCGACGAUCAUAGAUGGGCCAUGGAGGAAGUGUCAGCAAACAUGAAAAAGCAAAUCCGGCCAUAACUAUAUAGACAGUCCACCCGAACUGUUCAGCCACGUACCCGUAGAUAAAUCCAACUAUUGCAGACAACAGAGGAUUGAGCAUCA
B13: 9459372_9459492_2542_CDS_ENSG00000205339_ENST00000379719|human|control|control (ssRNA)
RNA: GGGAGUUCUACAGUCCGACGAUCCUGUGUAAUAAAAUGAUUUGUAACUGGUUCAACAUUAUUAGGGAAGCGAAGAUUUUCUAAGGUAUUGAGUAGUAGGUGUGGAUUAUAAUACAAAGCUGCAAUUGCAACUUGCAGACACAUCAACAGAGGAUUGAGCAUCA
B14: chr11:60966614:60966615:-_ENSMUSG00000042506_ENSMUST00000041683|mus_mus|motif|central (ssRNA)
RNA: GGGAGUUCUACAGUCCGACGAUCGAGCAGCGGCCGCUUAGUUUUGCCACAGCUAUGUCAUUCCAUCGCAAUUCGCGGGCGGAGGAGCUGGGCUGGGCCCUGUACUGCUCUUUUAUAGCCUGUAAGUGAAAAAACAAAAUCUUACAACAGAGGAUUGAGCAUCA
B15: 38355041_38355161_2037_CDS_ENSMUSG00000044864_ENSMUST00000156038|mouse|control|control (ssRNA)
RNA: GGGAGUUCUACAGUCCGACGAUCAUCAAUCAGGAGGCUCACGACUGACGCGUGCCCUUUGCUUGCAGGCACACAGAGCGCGGCCACGGAGAGGGCUGUCCUGCCGUCCACGUCCUCGUGGUUUACCUCUGCGCCAUGGUCCAGCAACAGAGGAUUGAGCAUCA
B16: chr3:39104626:39104627:+_ENSG00000114742_ENST00000302313|hu_mus|FALSE|FALSE (ssRNA)
RNA: GGGAGUUCUACAGUCCGACGAUCGUGCUGAUUGACACUCCAUAUUCUUAUGAUGGAGUCUCGACCUGCUGUGAAGAGUCUGUUGAGUGCUGGGUCCAGUUGCAGGGCAUUGACUCCAUUCCGAUUGUAUUUCUCCACUUCAUCCAACAGAGGAUUGAGCAUCA
B17: chr6:56729896:56729897:-_ENSMUSG00000059486_ENSMUST00000114323|mus_mus|motif|central (ssRNA)
RNA: GGGAGUUCUACAGUCCGACGAUCCUUAUGCAAAUCAGCGGGUGGGCUGCAUAACUUGUAAACUUUUUCUGCCUGGGGGCGGUAACAGACAGAAGAGUAAAGACUACAAGGGUUUUCUGAGGAUGCUUCAAUGAAAAUCAUCAUCAACAGAGGAUUGAGCAUCA
B18: 126174138_126174520_2540_CDS_ENSMUSG00000042500_ENSMUST00000084289|mouse|control|control (ssRNA)
RNA: GGGAGUUCUACAGUCCGACGAUCAGUGAAGCAGUUGUCAUCCCACAAGACCUGGUAAUGUGAAGGACGGCUGGUUCCCUGAAUUCCUGCAUGACUACAGAGGUAAAAGUCAAACUCAGACGGGUGUGUGACGGUGCUAUCCACCAACAGAGGAUUGAGCAUCA
B19: 83504460_83504580_1148_ncRNA_ENSMUSG00000027091_ENSMUST00000134789|mouse|control|control (ssRNA)
RNA: GGGAGUUCUACAGUCCGACGAUCUCAGGCAGUCUCUAAAACAUAUAAAUACAAAGGAAAGGACACCACUCAUUAAAAACUGCAUCAAACGCAAGUGUCUUAAGUGUGAAUCUGUUGUUUCUGGAAAUUACACAUGCCCAAUGACAACAGAGGAUUGAGCAUCA
B20: chr1:52977185:52977186:+_ENSMUSG00000041426_ENSMUST00000044478|mus_mus|FALSE|FALSE (ssRNA)
RNA: GGGAGUUCUACAGUCCGACGAUCUUUGCUCCAAAAUAAACUUUAGAAUUUCAAAUCACUGCUUCCCAGAGAUUUAAAGUAACUAUUCAAGUCUUCAUCCGUAACAUCUUUUAGAUUGGCUGGUUUCCAUUUUGGAGUCUGGUCCAACAGAGGAUUGAGCAUCA
B21: 80543914_80544034_1648_3pUTR_ENSG00000141568_ENST00000335255|human|control|control (ssRNA)
RNA: GGGAGUUCUACAGUCCGACGAUCUAGGAGGGGCCAGCACGGCUGCCGGGGUGACCACAGCUUGUCCAGAGACAGUGUACGUGUUCGCUGGGGCCAGUCCGGCCACACUGGUGACCGACACCGCUGGGAUCUGGUGGACGACGUCAACAGAGGAUUGAGCAUCA
B22: chr11:31900494:31900495:+_ENSMUSG00000020297_ENSMUST00000020537|mus_hu|FALSE|FALSE (ssRNA)
RNA: GGGAGUUCUACAGUCCGACGAUCAGGAGGACGGCCAGGAGUCCUCCCUCCUCAGCCCGAGCUUGUGGUGCUGAAAGGACAGCGCCUCGCGUGUGUCUGGAUCGGAGCUUCUGAGAGCAGGCGUGAGCGAGCAGGGAAGAGCUCCAACAGAGGAUUGAGCAUCA

target: T1, UNK ZnF1-3; assay: nsRBNS (natural sequence RNA bind-n-seq); RBNS binding buffer (assumed for nsRBNS): 25 mM Tris pH 7.5, 150 mM KCl, 3 mM MgCl2, 0.01% Triton X-100, 500 ug/ml BSA, 20 U/ml SUPERase-In, 4 C; UNK is unkempt and MSI1 is Musashi-1; names of the RNAs are library labels; protein concentration not given here; high values mean tight binding

| Binder | binding signal [enrichment R] |
| --- | --- |
| B1 | 1.45 |
| B2 | 1.73 |
| B3 | 0.67 |
| B4 | 0.773 |
| B5 | 0.425 |
| B6 | 0.499 |
| B7 | 0.823 |
| B8 | 0.314 |
| B9 | 1.06 |
| B10 | 1.07 |
| B11 | 1.94 |
| B12 | 1.84 |
| B13 | 1.62 |
| B14 | 0.776 |
| B15 | 0.515 |
| B16 | 0.438 |
| B17 | 1.47 |
| B18 | 1.37 |
| B19 | 1.91 |
| B20 | 0.845 |
| B21 | 0.728 |
| B22 | 1.08 |

From article PMC12136788
